The record followed here is US20260265359A1 (Hoffmann-La Roche, published 2026).

Like-named read-outs stand apart in the source and are kept apart here.

Experiment [1] has as its target T1, recombinant human VEGF-A165 (human, UniProt P15692-4 27-191).
T1 sequence (looked up): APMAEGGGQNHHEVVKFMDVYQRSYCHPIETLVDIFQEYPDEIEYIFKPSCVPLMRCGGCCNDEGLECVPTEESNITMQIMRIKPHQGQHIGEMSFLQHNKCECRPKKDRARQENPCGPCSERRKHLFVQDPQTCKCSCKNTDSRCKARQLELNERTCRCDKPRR
Put plainly: ELISA on plate-coated recombinant human VEGF-A165; anti-human IgG1-Fc-HRP, OD450. The method, then:
(§1) After non-specific blocking using 1% BSA at 25° C. for 1 hour, a series of dilutions of test antibodies (“Abs”) were added into the coated wells and incubated at 25° C. for 1 hour. The bound Abs were detected using a secondary Ab (goat anti-human IgG1-Fc) conjugated with HRP followed by OD₄₅₀ reading.
In general terms: ELISA stands for enzyme-linked immunosorbent assay.

For experiment [2], the target named is T2, recombinant human Ang-1 (human, UniProt Q15389 20-498, limits assumed).
T2 construct: also called Angiopoietin 1
T2 sequence (looked up): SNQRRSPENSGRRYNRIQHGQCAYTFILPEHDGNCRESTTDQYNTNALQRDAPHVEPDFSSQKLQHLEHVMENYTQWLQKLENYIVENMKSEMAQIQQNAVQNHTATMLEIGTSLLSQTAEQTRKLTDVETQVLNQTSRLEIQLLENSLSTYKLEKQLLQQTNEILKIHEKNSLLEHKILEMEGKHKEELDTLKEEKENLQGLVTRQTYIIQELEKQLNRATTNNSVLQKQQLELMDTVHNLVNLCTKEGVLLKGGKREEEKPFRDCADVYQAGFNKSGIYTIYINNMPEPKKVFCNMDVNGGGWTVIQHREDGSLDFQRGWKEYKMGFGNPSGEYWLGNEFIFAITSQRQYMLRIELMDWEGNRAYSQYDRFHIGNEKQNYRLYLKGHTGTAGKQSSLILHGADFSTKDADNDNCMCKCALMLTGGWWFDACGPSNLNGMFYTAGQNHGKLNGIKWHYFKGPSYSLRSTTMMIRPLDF
As to the kind of experiment: ELISA on plate-coated recombinant human Ang-1; anti-human IgG1-Fc-HRP, OD450. The method, then: as §1
The same ELISA procedure was performed with recombinant human Ang-1.

The target in experiment [3] is T3, recombinant human VEGF-B167 (human, UniProt P49765-2 22-188).
T3 sequence (looked up): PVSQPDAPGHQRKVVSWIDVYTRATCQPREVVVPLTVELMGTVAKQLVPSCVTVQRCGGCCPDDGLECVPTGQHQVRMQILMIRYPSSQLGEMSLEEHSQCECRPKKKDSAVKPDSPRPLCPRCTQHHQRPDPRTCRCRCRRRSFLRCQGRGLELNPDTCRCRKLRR
Put plainly: ELISA on plate-coated recombinant human VEGF-B167; anti-human IgG1-Fc-HRP, OD450. The method, then: as §1

The target in experiment [4] is T4, recombinant human PIGF (human, UniProt P49763-2 19-149, limits assumed).
T4 construct: also called PlGF; placental growth factor
T4 sequence (looked up): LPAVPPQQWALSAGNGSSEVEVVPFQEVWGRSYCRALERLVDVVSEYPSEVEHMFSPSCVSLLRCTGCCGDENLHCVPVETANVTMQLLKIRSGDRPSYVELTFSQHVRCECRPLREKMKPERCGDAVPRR
Put plainly: ELISA on plate-coated recombinant human PIGF; anti-human IgG1-Fc-HRP, OD450. How it is done:
as §1

The target of experiment [5] is T5, recombinant human Ang-2 (human, UniProt O15123 19-496, limits assumed).
T5 construct: also called Angiopoietin-2; hAng-2
T5 sequence (looked up): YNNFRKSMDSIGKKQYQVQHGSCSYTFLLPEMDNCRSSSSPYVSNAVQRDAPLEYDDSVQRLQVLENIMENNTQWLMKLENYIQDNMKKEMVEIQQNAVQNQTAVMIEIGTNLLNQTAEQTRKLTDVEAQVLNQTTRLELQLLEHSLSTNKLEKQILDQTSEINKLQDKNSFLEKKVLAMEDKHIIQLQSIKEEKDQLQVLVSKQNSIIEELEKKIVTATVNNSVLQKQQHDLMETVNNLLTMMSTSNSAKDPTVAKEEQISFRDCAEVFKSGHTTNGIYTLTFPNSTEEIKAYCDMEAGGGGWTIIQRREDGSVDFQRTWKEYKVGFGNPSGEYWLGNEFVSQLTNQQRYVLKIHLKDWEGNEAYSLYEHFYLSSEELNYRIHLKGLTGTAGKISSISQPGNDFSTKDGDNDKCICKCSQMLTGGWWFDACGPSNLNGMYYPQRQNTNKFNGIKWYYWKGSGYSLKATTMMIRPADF
As to the kind of experiment: ELISA on plate-coated recombinant human Ang-2; anti-human IgG1-Fc-HRP, OD450. The method, then: as §1

The target of experiment [6] is T5, recombinant human Ang-2. The experiment is described as above. How it is done:
as §1
This is another data set of the same source.

The target in experiment [7] is T6, recombinant human IL-6R (human, UniProt P08887 20-365, limits assumed).
T6 construct: Recombinant protein used in ELISA and as SPR analyte; also called hIL-6R
T6 sequence (looked up): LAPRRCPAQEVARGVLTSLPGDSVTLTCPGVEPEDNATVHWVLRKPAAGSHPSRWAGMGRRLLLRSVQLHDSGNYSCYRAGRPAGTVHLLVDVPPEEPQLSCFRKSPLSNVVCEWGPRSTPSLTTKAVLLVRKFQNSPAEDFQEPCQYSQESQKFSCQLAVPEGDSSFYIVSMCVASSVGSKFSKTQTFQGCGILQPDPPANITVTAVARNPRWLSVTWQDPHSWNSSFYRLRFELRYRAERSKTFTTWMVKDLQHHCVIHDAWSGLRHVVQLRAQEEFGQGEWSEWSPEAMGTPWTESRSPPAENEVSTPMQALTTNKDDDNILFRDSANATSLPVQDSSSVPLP
Put plainly: ELISA on plate-coated recombinant human IL-6R; anti-human IgG1-Fc-HRP, OD450. How it is done:
as §1
The same ELISA procedure was performed with recombinant human IL-6R. […] Vobarilizumab is a single domain antibody against IL-6R. B781402 and B781405 are bispecific fusion antibodies that inhibit VEGF-A, B, PIGF and IL-6R.

Experiment [8] addresses T1, recombinant human VEGF-A165. Put plainly: cell-based or functional assay.
Experiment [9] has the same target. As to the kind of experiment: cell-based or functional assay. The source holds these as a separate data set.

B1: EB-105BI-15CA (other)
heavy: QVQLQESGPGLVRPSQTLSLTCTVSGYSITSDHAWSWVRQPPGRGLEWIGYISYSGITTYNPSLKSRVTMLRDTSKNQFSLRLSSVTAADTAVYYCARSLARTTAMDYWGQGSLVTVSSASTKGPSVFPLAPSSKSTSGGTAALGCLVKDYFPEPVTVSWNSGALTSGVHTFPAVLQSSGLYSLSSVVTVPSSSLGTQTYICNVNHKPSNTKVDKKV[human IgG1 Fc skipped]GGSGGGGSGGGGSMGAQQKYQPLDELDKTLYDQFMLQQGLE
light: SDTGRPFVEMYSEIPEIIHMTEGRELVIPCRVTSPNITVTLKKFPLDTLIPDGKRIIWDSRKGFIISNATYKEIGLLTCEATVNGHLYKTNYLTHRQTNTIIDVVLSPSHGIELSVGEKLVLNCTARTELNVGIDFNWEYPSSKHQHKKLVNRDLKTQSGSEMKKFLSTLTIDGVTRSDQGLYTCAASSGLMTKKNSTFVRVHEKDIQMTQSPSSLSASVGDRVTITCRASQDISSYLNWYQQKPGKAPKLLIYYTSRLHSGVPSRFSGSGSGTDFTFTISSLQPEDIATYYCQQGNTLPYTFGQGTKVEIKRTVAAPSVFIFPPSDEQLKSGTASVVCLLNNFYPREAKVQWKVDNALQSGNSQESVTEQDSKDSTYSLSSTLTLSKADYEKHKVYACEVTHQGLSSPVTKSFNRGEC
notes: Trispecific antibody fusion protein, first embodiment; also called B21138004
The EC50 is the concentration that produces a half-maximal response. In the case of B1, the EC50 in experiment [1] turned out to be 0.065 nM; in [2], 3.81 nM; in [3], 0.037 nM; in experiment [4], 0.045 nM; in [5], 0.186 nM; in experiment [6] it was 0.119 nM. In addition, the EC50 in experiment [7] worked out at 0.095 nM. For the same molecule, the “IC50, inhibition of VEGF-A165-stimulated VEGFR-2 NF-AT luciferase reporter (HEK-293), luminescence” value (“IC50, inhibition” below) in experiment [8] was 0.527 nM.

B2: EB-105BIc1 (other)
heavy chain (tocilizumab heavy chain, linker, Ang-2 sdAb A38-196): QVQLQESGPGLVRPSQTLSLTCTVSGYSITSDHAWSWVRQPPGRGLEWIGYISYSGITTYNPSLKSRVTMLRDTSKNQFSLRLSSVTAADTAVYYCARSLARTTAMDYWGQGSLVTVSSASTKGPSVFPLAPSSKSTSGGTAALGCLVKDYFPEPVTVSWNSGALTSGVHTFPAVLQSSGLYSLSSVVTVPSSSLGTQTYICNVNHKPSNTKVDKKV[human IgG1 Fc skipped]GGSGGGGSEVQLVESGGGLVQPGGSLRLSCAASGLYFSSYDIAWVRQAPGKGLEFVSAIDVSGEHTYYADSVKGRFTISRDNAKNTLYLQMNSLRAEDTAVYYCNAVKWSDYGPDNDYWGQGTLVTVSS
light chain (VEGFR-1-D2, VEGFR-2-D3, tocilizumab light chain): SDTGRPFVEMYSEIPEIIHMTEGRELVIPCRVTSPNITVTLKKFPLDTLIPDGKRIIWDSRKGFIISNATYKEIGLLTCEATVNGHLYKTNYLTHRQTNTIIDVVLSPSHGIELSVGEKLVLNCTARTELNVGIDFNWEYPSSKHQHKKLVNRDLKTQSGSEMKKFLSTLTIDGVTRSDQGLYTCAASSGLMTKKNSTFVRVHEKDIQMTQSPSSLSASVGDRVTITCRASQDISSYLNWYQQKPGKAPKLLIYYTSRLHSGVPSRFSGSGSGTDFTFTISSLQPEDIATYYCQQGNTLPYTFGQGTKVEIKRTVAAPSVFIFPPSDEQLKSGTASVVCLLNNFYPREAKVQWKVDNALQSGNSQESVTEQDSKDSTYSLSSTLTLSKADYEKHKVYACEVTHQGLSSPVTKSFNRGEC
notes: also called MFDDHD001
Turning to B2, the EC50 in experiment [1] was 0.711 nM; in [6], 0.228 nM; in experiment [7], 0.218 nM. Besides, the “IC50, inhibition” value in experiment [9] stood at 0.262 nM.

B3: EB-105BIc2 (other)
heavy chain (tocilizumab heavy chain, linker, Ang-2 sdAb A41-089): QVQLQESGPGLVRPSQTLSLTCTVSGYSITSDHAWSWVRQPPGRGLEWIGYISYSGITTYNPSLKSRVTMLRDTSKNQFSLRLSSVTAADTAVYYCARSLARTTAMDYWGQGSLVTVSSASTKGPSVFPLAPSSKSTSGGTAALGCLVKDYFPEPVTVSWNSGALTSGVHTFPAVLQSSGLYSLSSVVTVPSSSLGTQTYICNVNHKPSNTKVDKKV[human IgG1 Fc skipped]GGSGGGGSEVQLQESGGGLVQPGGSLRLSCAASGFTLDAYAIGWFRQAPGKEREGVSTIGKSDGSTCYADSVKGRFTISRDNAKNTVWLQMNSLRAEDTAVYYCAARPWWVGDAPSIAAEYEYDLWGQGTQVTVSS
light chain (VEGFR-1-D2, VEGFR-2-D3, tocilizumab light chain): SDTGRPFVEMYSEIPEIIHMTEGRELVIPCRVTSPNITVTLKKFPLDTLIPDGKRIIWDSRKGFIISNATYKEIGLLTCEATVNGHLYKTNYLTHRQTNTIIDVVLSPSHGIELSVGEKLVLNCTARTELNVGIDFNWEYPSSKHQHKKLVNRDLKTQSGSEMKKFLSTLTIDGVTRSDQGLYTCAASSGLMTKKNSTFVRVHEKDIQMTQSPSSLSASVGDRVTITCRASQDISSYLNWYQQKPGKAPKLLIYYTSRLHSGVPSRFSGSGSGTDFTFTISSLQPEDIATYYCQQGNTLPYTFGQGTKVEIKRTVAAPSVFIFPPSDEQLKSGTASVVCLLNNFYPREAKVQWKVDNALQSGNSQESVTEQDSKDSTYSLSSTLTLSKADYEKHKVYACEVTHQGLSSPVTKSFNRGEC
notes: also called MFDDHD002
As for B3, the EC50 in experiment [1] was 0.667 nM; in experiment [6] it was 0.124 nM; in experiment [7] it was 0.227 nM. The “IC50, inhibition” value in experiment [9] is 0.289 nM.
